# Test results taken from the supplement of paper PMC3334620.
# Whole data set: some 33,000 sequences, median “E-score (-0.5 to 0.5)” near -0.016, cut for the highest 2% near 0.31. The list shows a part of the results.
# Target: Cst6 (UniProt P40535)
# Assay: PBM E-score (8-mer binding enrichment) (E-score (-0.5 to 0.5)); higher = stronger / more preferred TF binding; most listed sequences are background and not binding sites
# Conditions: protein concentration: 200 nM; construct: GST-DNA-binding domain
# In short: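 Full-length yeast transcription factors or their DNA-binding domains, GST-tagged and expressed with PURExpress, were applied at about 100-200 nM to universal all-10-mer Agilent arrays. These arrays had been made double-stranded by primer extension on fresh or once-stripped slides. Detection used fluorescent anti-GST, normalisation used masliner, and E-scores for ungapped eight-base words pooled with reverse complements came from the Universal PBM Analysis Suite.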
row,Sequence,PBM E-score
1,ACGGTCAA,0.146
2,AACGATAA,-0.035
3,CATTACGA,0.205
4,ATAACCCG,-0.359
5,GCACAAAA,0.171
6,ACCCTCTC,-0.352
7,CACCATCG,-0.148
8,CTCGCAAA,-0.143
9,GTCCCTAA,-0.165
10,GACTGTAC,-0.043
11,AGCAGAGC,-0.155
12,AGGACGTC,0.161
13,ACAATGCC,-0.0253
14,ATAAAGGG,-0.00024
15,GCCTTGCA,0.0649
16,CCTCTAAA,-0.134
17,AGCATCTC,-0.1
18,GCGATAAC,0.0758
19,CATGTGAG,-0.172
20,AAAAACCA,0.175
21,GGAAATCC,-0.129
22,GACGACGA,0.0598
23,CGCCTGCA,-0.132
24,ACGGACTG,-0.23
25,CGAACTAA,0.0961

row,Sequence,PBM E-score
1,AGCCCGCT,-0.345
2,CGACCATA,-0.155
3,ATACGTCG,0.215
4,AAAGACAT,0.0761
5,TACAAATA,0.279
6,CGGACCAC,-0.167
7,CATTTGTA,0.258
8,AAAGTTAC,0.154
9,AGGGGCAT,-0.239
10,GGTATTAA,0.053
11,AGACTGAG,-0.255
12,CACTGTCA,0.0758
13,CTCGCCTA,0.00413
14,CAGGAAAA,0.0388
15,CGCGAGAA,-0.0934
16,CCCGCAAA,0.0549
17,AAACAAAA,0.219
18,TACCTAGA,-0.202
19,AACTAGGG,-0.166
20,ACAAAAAA,0.311
21,GCGCGACC,0.0302
22,GTCCATGA,-0.0498
23,CAGAAGGA,-0.316
24,AACCTAAG,-0.15
25,CAGTTAAA,0.12

row,Sequence,PBM E-score
1,AGCCCTCG,-0.253
2,TTCTTAAA,0.125
3,AACAGATG,0.0323
4,CCGTATGC,0.0167
5,GGGATGAC,0.221
6,CGTCATAG,0.468
7,GAACATAA,0.0774
8,TCACCGCA,0.131
9,CCAGCTGG,-0.276
10,AACCGCGA,0.187
11,AGGGCGAC,-0.112
12,CCACCTCC,-0.208
13,ACTTCCGA,-0.095
14,CGTTCAGC,-0.0555
15,GAATACGC,0.0327
16,ACCGTCAA,0.159
17,AGGCCCAC,-0.378
18,AAGCCGAC,-0.231
19,AACTTGGA,-0.014
20,ATTCCACG,-0.0333
21,TGACACCA,0.207
22,CGGAAGCC,-0.215
23,GCAACATA,0.00166
24,AGTGGCGA,0.0569
25,GTGTCTGA,0.0503

row,Sequence,PBM E-score
1,GCGAAGAA,0.104
2,GTGTCCTA,-0.0992
3,AGTAGTGC,-0.186
4,GCCTAAAC,-0.122
5,ATGGCCGA,-0.115
6,GGCGGCAA,0.137
7,TCGGGTAA,-0.0306
8,CGGCCTGC,-0.254
9,AGCGCGTG,-0.0464
10,GCGGAGAC,-0.0522
11,CTTCTAAA,0.115
12,TAGACTGA,0.0599
13,CGATCCAG,0.0183
14,GTTCGGCA,0.0638
15,ATCAGTTA,0.258
16,CTTTTCTA,-0.0954
17,ACGATGAT,0.206
18,AGGTGGAT,-0.119
19,GACTAAGA,-0.0891
20,AAGACGTA,0.215
21,AAGCGGAT,-0.0562
22,ATGAGGTA,0.312
23,TCCGCACA,0.0266
24,ATAAAAAA,0.234
25,CGTGGCGA,-0.0853

row,Sequence,PBM E-score
1,GGGTACTA,-0.00885
2,AACGTTAG,0.0614
3,CACTCCTA,-0.0931
4,CTAAATTC,0.221
5,CGGTTCAC,-0.299
6,CTAAGAGC,-0.208
7,AACCTCGA,-0.0253
8,GTGTTCTA,0.103
9,ACGGCGTA,0.358
10,ATTTGAGA,0.139
11,AAGGAACC,-0.0799
12,AAAAGTAT,0.248
13,AATCAACC,-0.193
14,AGAAGTGC,-0.187
15,AGCAAGCT,-0.257
16,AAAATACC,0.0958
17,AAGACCCC,-0.272
18,TAATGGAA,0.221
19,CGAATCAC,0.0397
20,ACTCACCA,0.043
21,ACGCTGAG,-0.00878
22,AACATATC,0.134
23,CGGGAGAC,-0.262
24,GCTCGGGA,-0.193
25,AGGAGCTG,-0.256

row,Sequence,PBM E-score
1,AAGGGCGA,-0.152
2,TCCAGGGA,-0.117
3,CACACTCC,-0.117
4,ACAGGGCG,0.0932
5,ATCCCGTG,0.0123
6,ACTCAGGC,-0.0327
7,CCTGTCAA,-0.0105
8,AGCACCCT,-0.296
9,GTTATGTA,0.165
10,ATCCATTG,0.0328
11,GGCATGGA,0.0466
12,AGCGCCAG,-0.202
13,CTGAATGC,-0.0424
14,CCCGTTTC,-0.266
15,CAGGATAG,0.0523
16,AGGTGCCC,-0.233
17,ATGAACAT,0.132
18,CAAACTAG,-0.195
19,ATCTTGGC,-0.185
20,GAACAGTC,-0.312
21,AGAAAGAG,-0.0467
22,AAGTAATC,0.179
23,CCATGCCA,-0.0478
24,AGTGAAAG,0.0582
25,CAAGGTCA,-0.147

row,Sequence,PBM E-score
1,ATTCTCGC,-0.17
2,ATGTGTGA,0.0664
3,ATCTTTCC,0.023
4,GATACGTA,0.332
5,AAGGGCGT,-0.0269
6,AGGTAACG,-0.161
7,CATTTTCG,0.176
8,CACTCTCG,0.0532
9,ACAGGCTA,-0.22
10,TGATTAAA,0.242
11,ACCGAGAT,-0.0371
12,ATTTTAAG,0.203
13,CGGTTACA,0.171
14,CGTGATAG,0.0126
15,CATTACCC,-0.01
16,CATCGCCC,-0.0867
17,CTAAACTA,-0.0665
18,CGCCCAAG,-0.248
19,TCGAATAA,0.0566
20,CCAGACAC,-0.193
21,CTCGGTCC,-0.203
22,CGGCTGTA,0.0661
